According to the supplement of paper PMC8183993:
Structures can show the parent of a compound that is named as a salt. ± gives the standard deviation of the averaged measurements. Over roughly 3,100 compounds, “mean cytoplasmic OPP incorporation (global translation) relative to DMSO” has its median near 100; the lowest 2% begin near 56. Some of the results follow.

What follows are compounds tested on U2OS (assay: mean cytoplasmic OPP incorporation (global translation) relative to DMSO (% of DMSO); higher = more protein synthesis). Conditions: 10 µM; 24 h.
Procedure: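 Primary image-based screen in U2OS cells: compounds at 10 uM for 24 h, then a 1 h o-propargyl-puromycin (OPP) pulse, click labelling, and high-throughput microscopy. Mean cytoplasmic OPP intensity and nuclei count were normalised to DMSO wells within each plate (DMSO = 100) and averaged over triplicate plates.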

SMILES	mean cytoplasmic OPP incorporation
CCC[S+]([O-])c1ccc2[nH]c(NC(=O)OC)nc2c1 (stereo not drawn) [Albendazole Oxide (Ricobendazole)]	94.4
NC(=O)OCC(COC(N)=O)c1ccccc1 [Felbamate]	103
Cc1ccnc(NS(=O)(=O)c2ccc(N)cc2)n1 [Sulfamerazine]	108
C[C@H]1NC(=O)NC1=O [Methylhydantoin-5-(D)]	97.8
N=C(N)NCc1cccc(I)c1 [Iobenguane sulfate]	93.4
O=C1CCN(c2ccccc2)N1 [Phenidone]	101
CN1CCC(Nc2ncc3ncnc(Nc4ccc(F)c(Cl)c4)c3n2)CC1 [BIBX 1382 dihydrochloride]	102
COC(=O)Nc1ccc(-c2nc(N3CCOCC3)c3cnn(C4CCN(C(=O)OC)CC4)c3n2)cc1	86.5
Nc1ccc(S(=O)(=O)Nc2cnc3ccccc3n2)cc1 [Sulfaquinoxaline sodium salt]	97.1
CNC[C@H](O)[C@@H](O)[C@H](O)[C@H](O)CO [Meglumine]	107
NCCCC(O)(P(=O)(O)O)P(=O)(O)O [Alendronate]	104
NCCCC(O)(P(=O)(O)O)P(=O)(O)O [Alendronate sodium]	97.3
NCCCC(O)(P(=O)(O)O)P(=O)(O)O [Alendronate (Fosamax)]	102
COC(=O)N[C@H](C(=O)N[C@@H](Cc1ccccc1)[C@@H](O)CN(Cc1ccc(-c2ccccn2)cc1)NC(=O)[C@@H](NC(=O)OC)C(C)(C)C)C(C)(C)C [Atazanavir sulfate]	113
N[C@H](C(=O)O)[C@@H]1CC(Cl)=NO1 [Acivicin]	69.7
CC(=O)Oc1ccccc1C(=O)Oc1ccccc1C(=O)O [Acetylsalicylsalicylic acid]	106
CNC(=O)c1c(I)c(C(=O)NCC(=O)Nc2c(I)c(C(=O)O)c(I)c(C(=O)NCCO)c2I)c(I)c(N(C)C(C)=O)c1I [Ioxaglic acid]	107
C[C@H](Cn1cnc2c(N)ncnc21)OCP(=O)(O)O [Tenofovir (Viread)]	99.5
CCCCNc1cc(C(=O)O)cc(S(N)(=O)=O)c1Oc1ccccc1 [Bumetanide]	104
O=c1ccn([C@@H]2O[C@H](CO)[C@@H](O)[C@H]2O)c(=O)[nH]1 [Uridine]	95.9
COc1ccc2[nH]c(-c3ccccc3)c(CCNC(C)=O)c2c1 [2-Phenylmelatonin]	105
O=C(NCCCN1CCCCCC1)C(c1ccccc1)C1CCCCC1 (stereo not drawn)	113
CC(C)n1c(/C=C/C(O)CC(O)CC(=O)O)c(-c2ccc(F)cc2)c2ccccc21 (stereo not drawn) [Fluvastatin sodium (Lescol)]	105
CC(C)n1c(/C=C/C(O)CC(O)CC(=O)O)c(-c2ccc(F)cc2)c2ccccc21 (stereo not drawn) [Fluvastatin sodium salt]	107

SMILES	mean cytoplasmic OPP incorporation
O=C1CCC[C@@H]2[C@H]3CCC[N+]4([O-])CCC[C@@H](CN12)[C@@H]34 (stereo partly drawn) [Oxymatrine (Matrine N-oxide)]	109
COC(=O)C(Cc1ccc(OCCn2c(=O)sc3cc(C(=O)c4ccccc4)ccc32)cc1)C(=O)OC	105
COc1cccc2cc(-c3nc([C@H]4CC[C@H](C(=O)O)CC4)n4ncnc(N)c34)[nH]c12	73.7
CC[C@H](C)C(=O)O[C@H]1C[C@@H](C)C=C2C=C[C@H](C)[C@H](CC[C@@H]3C[C@@H](O)CC(=O)O3)[C@H]21 [Lovastatin]	96.9 ± 15
CC[C@H](C)C(=O)O[C@H]1C[C@@H](C)C=C2C=C[C@H](C)[C@H](CC[C@@H]3C[C@@H](O)CC(=O)O3)[C@H]21 [Lovastatin (Mevacor)]	107
Cc1c(C)c2c(c(C)c1O)CCC(C)(C(=O)O)O2 (stereo not drawn) [Trolox]	98.6 ± 4.8
CC1(c2ccccc2)OC(C(=O)O)=CC1=O (stereo not drawn) [Acifran]	102
CCN(CC)CCOC(=O)c1ccc(N)cc1 [Procaine hydrochloride]	90.1
O=C1Nc2ccc(-c3cccnc3)cc2/C1=C/c1ccc[nH]1 [JAK3 Inhibitor VI]	90
COc1cc(C2Oc3cc([C@H]4Oc5cc(O)cc(O)c5C(=O)[C@@H]4O)ccc3OC2CO)ccc1O (stereo partly drawn) [Silibinin (Silybin)]	118
O=c1[nH]c2cc(C(F)(F)F)ccc2n1-c1cc(C(F)(F)F)ccc1O	96.7
CN(C)CCn1nnnc1SCC1=C(C(=O)O)N2C(=O)[C@@H](NC(=O)Cc3csc(N)n3)[C@H]2SC1 [Cefotiam hydrochloride]	98.6
O=c1cc(-c2ccccc2)oc2cc(O)c(O)c(O)c12 [Baicalein]	109 ± 13
O=C(O)CCC/C=C\CC1C(O)CC(O)C1/C=C/C(O)COc1cccc(Cl)c1 (racemic) [(±)-Cloprostenol sodium salt]	98.9
O=C(O)Cc1cccc(OCCCN(Cc2cccc(C(F)(F)F)c2Cl)CC(c2ccccc2)c2ccccc2)c1 [GW 3965 hydrochloride]	97
CC(=O)O[C@H]1C[C@@]2(C)[C@@H](C[C@@H](O)[C@H]3[C@@]4(C)CC[C@@H](O)[C@@H](C)[C@@H]4CC[C@@]32C)/C1=C(\CCC=C(C)C)C(=O)O [Fusidic acid sodium salt]	108
N[C@@H](Cc1cc(I)c(Oc2ccc(O)cc2)c(I)c1)C(=O)O [3,5-Diiodo-L-thyronine]	103
C[C@]1(c2nc3c(C(N)=O)cccc3[nH]2)CCCN1 [ABT-888 (Veliparib)]	101
CC(=O)N[C@@H](CS)C(=O)O [Acetylcysteine]	104
CC(=O)N[C@@H](CS)C(=O)O [N-Acetyl-Cysteine]	102
NCCCCCNCC12CC3CC(CC(C3)C1)C2 [IEM 1754 dihydrobroMide]	104
CCNC(=O)CCC/C=C\C[C@@H]1[C@@H](/C=C/[C@@H](O)CCc2ccccc2)[C@H](O)C[C@@H]1O [Bimatoprost]	104
C[C@]12C[C@H](O)[C@H]3[C@@H](CCC4=CC(=O)CC[C@@]43C)[C@@H]1CC[C@@H]2C(=O)CO [Corticosterone]	98
COc1ccc(S(=O)(=O)Nc2cccnc2Nc2ccc(O)cc2)cc1	90.3
